Consider 14 molecules from publication PMC12136788.

The list shows a part of the results.

B1: chr4:70689993:70690094:+|CDS|ENSG00000132467|unk|total|mutant (ssRNA)
RNA: GGGAGUUCUACAGUCCGACGAUCAGAGCCAAAAUCCGAAGAAGAGGCCAGGUUCGUGAAGUUCGUAAAGAAGAGCAACGUUACCGUGGUGAAUUAUCUGGCAUUCGUGCAGGAGUUAAAAAGAGCAUUAAGCUUAAAUGAAGUCAACAGAGGAUUGAGCAUCA
B2: ENSG00000021826:stop:overlap|stop_codon|ENSG00000021826|stop_codon|NA|stop_codon (ssRNA)
RNA: GGGAGUUCUACAGUCCGACGAUCGCAAGGUGGACUCCAAGAGUCUUUUCCACUACAGGCAGUACAGUGCUGGAAAAGCAGCAUAGAGAUGCAGACACCCCAGCCCCAUUAUUAAAUCAACCUGAGCCACAUGUUAUCUAAAGGCAACAGAGGAUUGAGCAUCA
B3: ENSG00000198589:be:win_4701|CDS|ENSG00000198589|bound_else_gene|NA|bound_elsewhere_windowed (ssRNA)
RNA: GGGAGUUCUACAGUCCGACGAUCCAGUGAAAAUGAGAAUGUAUCACUCUCUGAAAUCACACCAGCAGCAUUCAGCACUUUAACUACGGCAUCAGUGGAAGAAUCUGAAAGCACAUCAUCUGCUCGAAGGAGGGACUCAGGCAUCAACAGAGGAUUGAGCAUCA
B4: chrX:51490010:51491748:-|three_prime_utr|ENSG00000196368|control|control|control (ssRNA)
RNA: GGGAGUUCUACAGUCCGACGAUCACUCCUUCCCUGUCUAUACCACUGACUCUUGCUCUGGUUGUUGUACUCUUAUACGUGAAUAGACUCUUAAUUCAGCACCUAUAGCCUUUUGUUGUGCUUUUUUGAUGUGUCUGCCUUCAUCAACAGAGGAUUGAGCAUCA
B5: chr15:77046258:77046342:-|3pUTR|ENSG00000140391|msi1_unk|total|mutant (ssRNA)
RNA: GGGAGUUCUACAGUCCGACGAUCAAAAAUAUUUACUGCCGUCCAAUAAGACCGCAGCUGUACAAAAUGACUAAAACCGAUUGCCGGAUCAUAUGGCGUAUAUCUUGGUUCAUCUUCAAAAUCAGAGACUGAGCUUUGAAACUACAACAGAGGAUUGAGCAUCA
B6: chr8:70573615:70573716:-|3pUTR|ENSG00000067167|msi1|total|mutant (ssRNA)
RNA: GGGAGUUCUACAGUCCGACGAUCCAGUGUUCACAUCUUGUUCCCCAUUUCUCACUUGUGUCACCAGCUGUUUGUGCCAUUUUCCGUGUAAAAGUUGCAGACCUAUCCGAUCUGCAGUUUAAGUUGCCAUGCUGCCCGGAAAUUCAACAGAGGAUUGAGCAUCA
B7: ENSG00000070961:be:win_1951|CDS|ENSG00000070961|bound_else_gene|NA|bound_elsewhere_windowed (ssRNA)
RNA: GGGAGUUCUACAGUCCGACGAUCGCAUUCAGAGAUUUUCCAGCAGGAGAACCAGAACCAGAGUGGGAUAAUGAAAAUGAUAUUGUCACCGGCCUUACAUGCAUUGCUGUUGUGGGGAUUGAAGAUCCUGUGAGACCUGAGGUGCAACAGAGGAUUGAGCAUCA
B8: ENSG00000198589:be:win_6851|CDS|ENSG00000198589|bound_else_gene|NA|bound_elsewhere_windowed (ssRNA)
RNA: GGGAGUUCUACAGUCCGACGAUCAAGUUCCAAAGUUUCACUAUGGUACUCAUUACUCAACUGCAAGUUUUGUUCUUGCAUGGCUGCUAAGAAUAGAACCCUUUACAACUUAUUUCCUAAAUUUGCAAGGAGGCAAAUUUGAUCCAACAGAGGAUUGAGCAUCA
B9: chr2:46903092:46903222:-|3pUTR|ENSG00000180398|msi1|FALSE|unique (ssRNA)
RNA: GGGAGUUCUACAGUCCGACGAUCAAGCAGAAACCCCUGAUAAACUGAUCAGAUCUCAUGAGACUUAUUCACUGUCACGAGAAUAGCACGGGAAAGACUGGCCCCCAUGAUUCAAUUACCUCCCCCUGGGUCUGUCCCACAACACAACAGAGGAUUGAGCAUCA
B10: ENSG00000140057:stop:overlap|stop_codon|ENSG00000140057|stop_codon|NA|stop_codon (ssRNA)
RNA: GGGAGUUCUACAGUCCGACGAUCCGCGGCCUGACUUUGCGGUGGAGACGUACUCUGUAAGUCCCGGAGGCUCUGGCCAGGAGUAGACAGAGGGAAGAGUCACCUUCCGCUCCAACGCCUUGACAACUUGUUUUACUGUUUGCCCAACAGAGGAUUGAGCAUCA
B11: chr13:38882223:38882324:+|3pUTR|ENSG00000150893|msi1|FALSE|unique (ssRNA)
RNA: GGGAGUUCUACAGUCCGACGAUCAGAAAAAUAAGGUCAGGAGAAAAAGAAUAAUGCCUACAGAUUAUCCUUCAGAUGCUGGCUAGAAUCCCCUUUGACUUCUAGCCAUAAGCUGGCCACAUUGGACAUCUUGGUCACUGCAGACAACAGAGGAUUGAGCAUCA
B12: ENSG00000198589:be:win_4051|CDS|ENSG00000198589|bound_else_gene|NA|bound_elsewhere_windowed (ssRNA)
RNA: GGGAGUUCUACAGUCCGACGAUCGUCAUCUUUGUACACAACACAAUUCAUCUCAUCUCUCAAGUGAUGGACAAUAUGGUCAUGGCUUGUGGGGGUAUACUGCCAUUGCUUUCAGCUGCUACAUCGGCUACACAUGAACUGGAACAACAGAGGAUUGAGCAUCA
B13: chr2:1633824:1633925:-|3pUTR|ENSG00000130508|msi1|FALSE|unique (ssRNA)
RNA: GGGAGUUCUACAGUCCGACGAUCAUUUAAUUCUUUUAAAAUGAAAAAUUGGUGCUACUAUUAAAUUGCACAGUUGAAUCAUUUAGGCGCCUAAAUUGAUUUUGCCUCCCAACACCAUUUCUUUUUAAAUAAAGCAGGAUACCUCAACAGAGGAUUGAGCAUCA
B14: chr10:72062367:72062468:-|3pUTR|ENSG00000107742|unk|total|mutant (ssRNA)
RNA: GGGAGUUCUACAGUCCGACGAUCCCUUGAUCCACACUGCUCCUGGCAGAGUGAGUCACCCAAAGGCCCCUUCGGCCUCCUUGCCGCUGUUUUCUUUCCUUUUGUUGUUGGUUUUAAAAUACAUUCACACACAAAUACAAAUUGCAACAGAGGAUUGAGCAUCA

In this experiment the target is T1, UNK ZnF1-6 (called full-length) (human, UniProt Q9C0B0 30-357).
T1 sequence: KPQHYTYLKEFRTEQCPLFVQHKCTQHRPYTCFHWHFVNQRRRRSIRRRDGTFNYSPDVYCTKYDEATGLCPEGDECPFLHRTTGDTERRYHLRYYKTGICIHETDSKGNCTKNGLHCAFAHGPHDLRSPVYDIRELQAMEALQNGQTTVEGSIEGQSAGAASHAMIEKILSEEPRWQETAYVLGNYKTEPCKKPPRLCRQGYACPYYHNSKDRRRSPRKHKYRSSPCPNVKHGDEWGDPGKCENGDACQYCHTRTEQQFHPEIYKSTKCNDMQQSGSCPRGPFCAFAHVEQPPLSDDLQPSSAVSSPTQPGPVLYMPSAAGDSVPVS
Kind of experiment: nsRBNS (natural sequence RNA bind-n-seq); RBNS binding buffer (assumed for nsRBNS): 25 mM Tris pH 7.5, 150 mM KCl, 3 mM MgCl2, 0.01% Triton X-100, 500 ug/ml BSA, 20 U/ml SUPERase-In, 4 C; UNK is unkempt and MSI1 is Musashi-1; names of the RNAs are library labels; protein concentration not given here; high values mean tight binding.
B1 registered a binding signal of 0.467 enrichment R. Consider B2, for which the binding signal came to 0.445 enrichment R.

On to B3, for which the binding signal amounted to 0.55 enrichment R. Consider B4, for which the binding signal worked out at 0.672 enrichment R. Turning to B5, the binding signal came out at 0.245 enrichment R. B6 showed a binding signal of 0.491 enrichment R. B7: the binding signal is 0.666 enrichment R.

With B8, the binding signal came out at 0.489 enrichment R. In the case of B9, the binding signal was found to be 0.87 enrichment R. B10 came in with a binding signal of 0.884 enrichment R.

B11 returned a binding signal of 0.337 enrichment R. On to B12, for which the binding signal came out at 0.804 enrichment R. The figure for B13 is 0.713 enrichment R; for B14 it is 0.476 enrichment R.
